Reference: PMC4336329 (PLoS ONE, 2015)
Screen size: about 310,000 compounds; about 2,200 (0.71%) showed an effect of 50% or more. The effect is printed as a negative number. This is one part of the list.

target: human ether-à-go-go-related gene (hERG) potassium channel (human, UniProt Q12809); experiment: primary screen, population patch clamp on CHO cells stably expressing hERG
Sequence (Q12809 whole entry, looked up): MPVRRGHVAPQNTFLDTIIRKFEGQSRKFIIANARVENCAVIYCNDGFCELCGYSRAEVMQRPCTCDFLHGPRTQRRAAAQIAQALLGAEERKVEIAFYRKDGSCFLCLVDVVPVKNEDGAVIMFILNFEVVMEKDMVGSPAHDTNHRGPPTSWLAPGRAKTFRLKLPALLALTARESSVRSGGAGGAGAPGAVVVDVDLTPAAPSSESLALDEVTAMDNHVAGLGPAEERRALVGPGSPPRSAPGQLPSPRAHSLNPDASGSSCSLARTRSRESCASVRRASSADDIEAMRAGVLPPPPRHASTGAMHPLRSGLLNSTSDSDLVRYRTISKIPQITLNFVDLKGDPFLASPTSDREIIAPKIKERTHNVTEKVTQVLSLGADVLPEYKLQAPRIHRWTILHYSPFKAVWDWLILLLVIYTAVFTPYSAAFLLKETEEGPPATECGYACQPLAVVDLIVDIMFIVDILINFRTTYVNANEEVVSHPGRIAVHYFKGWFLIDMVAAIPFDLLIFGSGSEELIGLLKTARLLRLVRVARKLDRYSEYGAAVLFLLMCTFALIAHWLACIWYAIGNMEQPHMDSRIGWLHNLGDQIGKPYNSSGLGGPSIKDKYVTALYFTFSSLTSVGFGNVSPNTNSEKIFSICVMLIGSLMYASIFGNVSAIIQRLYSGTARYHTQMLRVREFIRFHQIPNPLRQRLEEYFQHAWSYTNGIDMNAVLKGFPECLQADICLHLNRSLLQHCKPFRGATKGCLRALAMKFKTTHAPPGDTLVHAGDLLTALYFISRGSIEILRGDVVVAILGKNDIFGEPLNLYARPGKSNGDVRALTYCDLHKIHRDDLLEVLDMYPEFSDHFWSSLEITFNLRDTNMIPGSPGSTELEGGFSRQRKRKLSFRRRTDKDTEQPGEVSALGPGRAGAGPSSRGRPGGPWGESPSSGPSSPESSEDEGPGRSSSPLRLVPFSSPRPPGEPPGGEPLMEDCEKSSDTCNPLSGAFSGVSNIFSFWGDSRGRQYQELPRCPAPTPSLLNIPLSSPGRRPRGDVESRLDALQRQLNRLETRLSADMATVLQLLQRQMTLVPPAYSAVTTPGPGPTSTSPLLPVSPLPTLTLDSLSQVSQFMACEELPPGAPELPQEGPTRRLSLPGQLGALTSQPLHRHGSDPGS

SMILES	hERG current change (%, negative = inhibition) at 1uM [%]
CCS(=O)(=O)Nc1ccc(C(=O)NCCSc2ccccc2)cc1	8.08
CCC(C)(C)NC(=O)C(c1ccccc1Cl)N(Cc1cccnc1)C(=O)CCC(=O)Nc1cc(C)on1 (stereo not shown)	14.3
Cn1c(=O)cc(N)n(Cc2ccccc2)c1=O	14
O=S(=O)(Nc1ccc(Br)cn1)c1ccc(Cl)s1	11.8
COc1ccc(NC(=O)CN(C)S(=O)(=O)c2ccc3c(c2)OCCO3)c2ncccc12	12.5
CCC(C)NS(=O)(=O)c1ccc(NS(=O)(=O)c2ccc(F)cc2)cc1 (stereo not shown)	6.33
CCOC(=O)c1c(NC(=O)COC(=O)c2nc(Cl)ccc2Cl)sc(C(=O)N(C)C)c1C	11.4
CCCCn1c(=O)[nH]c(=O)c2c1nc(COc1ccc(C#N)cc1)n2CCC	-14.8
Cc1ccc(CCNC(=O)C2CCN(c3nn4c(=O)cc(C)nc4s3)CC2)cc1	0.535
COc1ccc(-c2ncc3ccccn23)cc1OC.O=C(O)C(=O)O	3.2
COc1ccc(-c2noc(N3CCC(C(=O)NCc4ccc(F)cc4)CC3)n2)cc1	8.94
COc1ccc(N2CCN(c3c(S(=O)(=O)c4ccccc4)cnc4ccc(OC)cc34)CC2)cc1	1.01
CS(=O)(=O)N1CCC(C(=O)NNC(=O)Nc2ccc(F)c(Cl)c2)CC1	-1.87
COc1cc(OC)c(OC)cc1CN1CCN(C(=O)COc2ccc3ccccc3c2)CC1.O=C(O)C(=O)O	-8.83
CCSc1nnc(N2C(=O)C(O)=C(C(=O)c3ccco3)C2c2cccc(OC)c2)s1 (stereo not shown)	9.72
CC(=O)c1ccc(N2C(=O)[C@@H]3C(CCC(N)=O)NC4(C(=O)Nc5c4ccc(Cl)c5C)[C@@H]3C2=O)cc1 (stereo partly shown)	11.1
CCN=C1SC(C(=O)Nc2ccccc2)CC(=O)N1CC (stereo not shown)	15.6
COC(=O)C[N+](C)(C)CC#Cc1ccccc1.[Br-]	13.1
O=C(Nc1nnc(CC(=O)N2CCOCC2)s1)C1COc2ccccc2O1 (stereo not shown)	8.42
COc1ccc(NC(=O)C(C)N(c2ccc(C)cc2)S(C)(=O)=O)cc1 (stereo not shown)	-17.2
COc1ccccc1-n1cc(CN2CCN(C3CCCC3)C(CCO)C2)cn1 (stereo not shown)	4.57
COC(=O)c1cc2oc(C)cc2n1CC(=O)N1CCCc2ccccc21	6.41

SMILES	hERG current change (%, negative = inhibition) at 1uM [%]
C/C(=N\NC(=O)CC(C)C)c1ccc(N2CCCCC2)cc1	1.96
O=C(CSc1ccc(Cl)cc1)NC1CCCc2ccccc21 (stereo not shown)	12.6
O=C(NCc1ccccc1)c1onc(CS(=O)(=O)c2ccccn2)c1C(=O)NCc1ccccc1	17.2
CCOC(=O)Nc1sc(NS(=O)(=O)c2ccccc2)nc1C	8.66
COc1ccccc1NC(=O)c1cc(Cl)ccc1NC(=O)c1ccco1	2.57
O=C(O)COc1ccccc1/C=N/NC(=O)c1cc2ccccc2cc1O	10.6
CCOc1ccsc1C(=O)O	13.5
O=C(CN1C(=O)/C(=C\c2ccc(C(F)(F)F)cc2)Sc2ccccc21)NCc1ccco1	3.02
O=C(COC(=O)c1cc([N+](=O)[O-])ccc1Cl)NC1CCCC1	1.22
CC(C)(C(N)=O)c1ccccc1	10.7
Cc1ccsc1/C=N/n1c(-c2ccco2)n[nH]c1=S	15.2
COc1ccccc1CC(=O)Nc1sc2c(c1C(N)=O)CCCC2	12
Cc1ccc2c(COC(=O)c3ccc(NC(=O)CC#N)cc3)cc(=O)oc2c1C	1.59
N/C(=N\OC(=O)c1cc(Cl)ccc1Cl)c1cccnc1	8.17
Cc1sc2nc(CN3CCCC3)nc(NCc3ccncc3)c2c1C	-45.4
S=C(Cc1cccnc1)N1CCOCC1	13.4
Cc1cccc(C)c1NC(=O)CN(C)C(=O)c1ccc2nc[nH]c2c1	14
CCOC(=O)C1=C(CC)Nc2ccccc2N=C1NC(=O)CCNC(C)=O	-0.999
N/C(=N\c1nc2ccccc2o1)NC(=O)/C=C/c1ccccc1	9.02
Cc1ccc(Cn2c(=O)n(-c3ccccc3)c(=O)c3ccc(C(=O)NCc4ccco4)cc32)cc1	12.7
CC1CN/C(=C\C(=O)c2ccc(Br)cc2)C(=O)N1 (stereo not shown)	9.76
Cc1ccc(C(=O)N2Cc3ccccc3CC2C(=O)O)cc1 (stereo not shown)	-0.914

SMILES	hERG current change (%, negative = inhibition) at 1uM [%]
O=c1[nH]cnc(O)c1C(c1ccc(Br)cc1)c1c(O)nc[nH]c1=O	10
Cc1nn(-c2ccccc2)c(OC(=O)c2cccs2)c1S(=O)(=O)c1ccc([N+](=O)[O-])cc1	1.3
O=C(O)c1cccc(N=NN2CCCCCC2)c1	8.11
CC(C)(C)c1ccc(C(=O)NN2CCOCC2)cc1	-18.9
COc1ccc(NC(=S)NCc2cccs2)cc1	14
CCOc1ccc(OCC(=O)N2CCOCC2)cc1	12.1
O=C(O)c1ccc(N/N=C/C=C/c2ccccc2[N+](=O)[O-])cc1	11.8
N#Cc1nc(Cc2ccccc2)oc1N1CCN(c2ccccc2)CC1	-0.118
O=C(CCCN1C(=O)/C(=C/c2ccccc2)SC1=S)Nc1ccc(O)cc1	9.49
O=C(CCc1ccc(Oc2cc([N+](=O)[O-])cc([N+](=O)[O-])c2)cc1)Nc1cccc(Cl)c1	8.68
CCN1CCCC1CNS(=O)(=O)c1ccc(Cl)c(C(F)(F)F)c1 (stereo not shown)	4.02
CCOC(=O)C1CCCCN1Cc1cc(OC)ccc1OC (stereo not shown)	-0.101
O=C(Nc1ccc(NC(=O)C2CC2)cn1)c1ccccc1Cl	5.88
O=C(Oc1ccc(Cl)c2cccnc12)N1CCCCC1	17.9
CCc1ccccc1NC(=O)C(C#N)Cc1cccnc1 (stereo not shown)	0.258
O=C(OCc1ccccc1F)c1cnc(Cl)c(Cl)c1	9.35
CC(C(=O)NC1CCCCCC1)N(c1ccccc1)S(C)(=O)=O (stereo not shown)	11.2
CCCC(=O)N/C(N)=N/c1nc2ccccc2o1	11.1
O=C(Nc1ccc(N2CCCC2)c(Cl)c1)c1ccccc1[N+](=O)[O-]	13.1
O=C(O)c1ccc2c(=O)n3cc(C(=O)c4ccccc4O)cc(Cl)c3nc2c1	4.58
CC(C)(C)c1ccc(C(=O)NCCN2CCOCC2)cc1	5.39
CON(C)S(=O)(=O)NC(=O)C1=C(N2CCCC2)COC1=O	17.3

SMILES	hERG current change (%, negative = inhibition) at 1uM [%]
CC1CCCC(C)N1C(=O)COC(=O)c1cc(-c2cccs2)nn1-c1ccccc1 (stereo not shown)	15.1
Cc1ccc(-n2nc3c(c2NC(=O)CC(C)C)CS(=O)(=O)C3)cc1	10.4
CNc1c(NS(=O)(=O)c2ccc(CC(C)C)cc2)c(=O)oc2ccccc12	11.7
CC1CC(C)CN(CCCNC(=O)c2ccc(N3CCCC3=O)cc2)C1 (stereo not shown)	18.4
O=C(c1n[nH]c2ccccc12)N1CCN(S(=O)(=O)c2ccc(Cl)cc2)CC1	4.22
CCCOC1CCCN(C(=O)c2ccc3oc(C(C)C)nc3c2)C1 (stereo not shown)	10.6
O=C(NCc1ccco1)C(c1ccccc1F)N(CC1CCCO1)C(=O)Cn1nnc2ccccc21 (stereo not shown)	-10.2
O=C(C1CCN(S(=O)(=O)c2cccnc2)CC1)N1CCN(C2CCCC2)CC1	12.2
Oc1ccccc1O	13.9
CC1CC(C)(C)NC(=S)N1CC(=O)NCc1ccccc1Cl (stereo not shown)	13.9
COCC(=O)Nc1nnc(Cc2ccc(OC)c(OC)c2)s1	-6.83
COc1ccc(OC)c(C2C(C(=O)Nc3ccccc3OC)=C(C)Nc3nc(CCCO)nn32)c1 (stereo not shown)	11.7
COc1cc(C(C)=O)ccc1COc1ccc(C(=O)OCC(=O)NC(C)(C)C)cc1OC	7.58
COc1cc(-c2cc(C(=O)Nc3ccc(S(=O)(=O)Nc4ncccn4)cc3)c3ccccc3n2)cc(OC)c1OC	6.71
C/C(=N\OCC(=O)OC(C)C(=O)Nc1ccc(C(N)=O)cc1)c1ccc2c(c1)OCO2 (stereo not shown)	5.48
CC1c2nc3ccccc3n2C(CC(=O)NCc2ccccn2)C(=O)N1Cc1ccccc1 (stereo not shown)	18.2
O=C(CC1C(=O)NCCN1Cc1cccc(Oc2ccccc2)c1)NCCCn1cccn1 (stereo not shown)	8.61
O=C(NC(Cc1cccc(F)c1)C(=O)O)C1CCCCC1 (stereo not shown)	12.6
C[C@]12CCC(=O)C[C@H]1CC[C@@H]1[C@@H]2CC[C@]2(C)[C@@H](O)CC[C@@H]12	12.5
Fc1ccc(N2CCN(C(=S)NCc3ccco3)CC2)cc1	-1.95
Nc1cc(=O)[nH]c(SCc2cccc3ccccc23)n1	6.5
COc1ccc(NC(=O)c2ccccc2N(Cc2ccccc2)S(C)(=O)=O)cc1	1.68
